Reference: the supplement of paper PMC8728848
This is one part of the list.

What was measured:
Test in all cases: glycan array binding signal (z-score within array); higher = stronger binding
Conditions in all cases: glycan notation: IUPAC condensed, linker removed
[1] = biological target: Gal(b1-3)[Fuc(a1-4)]GlcNAc(b1-2)Man
Procedure, shortened: (§1)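 From the Consortium for Functional Glycomics database, 3228 arrays were curated, keeping only those whose protein sequence was available. Binding is given as a within-array Z-score averaged across arrays sharing a protein sequence and across linkers. Negative Z-scores can be read as non-binding.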

[2] = biological target: Gal(b1-3)[Fuc(a1-4)]GlcNAc(b1-2)Man(a1-3)[Gal(b1-3)[Fuc(a1-4)]GlcNAc(b1-2)Man(a1-6)]Man(b1-4)GlcNAc(b1-4)[Fuc(a1-6)]GlcNAc
Procedure, shortened: as §1

[3] = biological target: Gal(b1-3)[Fuc(a1-4)]GlcNAc(b1-3)Gal(b1-3)[Fuc(a1-4)]GlcNAc
Procedure, shortened: as §1

[4] = biological target: Gal(b1-3)[Fuc(a1-4)]GlcNAc(b1-3)Gal(b1-4)GlcNAc
Procedure, shortened: as §1

[5] = biological target: Gal(b1-3)[Fuc(a1-4)]GlcNAc(b1-3)Gal(b1-4)[Fuc(a1-3)]GlcNAc
Procedure, shortened: as §1

[6] = biological target: Gal(b1-3)[Fuc(a1-4)]GlcNAc(b1-6)GalNAc
Procedure, shortened: as §1

[7] = biological target: Gal(b1-3)[GlcNAc(b1-6)]GalNAc
Procedure, shortened: as §1

[8] = biological target: Gal(b1-3)[Neu5Ac(a2-6)]GalNAc
Procedure, shortened: as §1

[9] = biological target: Gal(b1-3)[Neu5Ac(a2-6)]GlcNAc(b1-4)Gal(b1-4)Glc
Procedure, shortened: as §1

[10] = biological target: Gal(b1-3)[Neu5Ac(a2-6)]GlcNAc(b1-6)Gal(b1-4)Glc
Procedure, shortened: as §1

[11] = biological target: Gal(b1-3)[Neu5Ac(b2-6)]GalNAc
Procedure, shortened: as §1

Gal(b1-4)Gal = biological target: Gal(b1-4)Gal
Procedure, shortened: as §1

[12] = biological target: Gal(b1-4)GalNAc(a1-3)[Fuc(a1-2)]Gal(b1-4)GlcNAc
Procedure, shortened: as §1

[13] = biological target: Gal(b1-4)GalNAc(b1-3)[Fuc(a1-2)]Gal(b1-4)GlcNAc
Procedure, shortened: as §1

Gal(b1-4)Glc = biological target: Gal(b1-4)Glc
Procedure, shortened: as §1

Gal(b1-4)Glc6S = biological target: Gal(b1-4)Glc6S
Procedure, shortened: as §1

Gal(b1-4)GlcNAc = biological target: Gal(b1-4)GlcNAc
Procedure, shortened: as §1

[14] = biological target: Gal(b1-4)GlcNAc(a1-6)Gal(b1-4)GlcNAc
Procedure, shortened: as §1

Gal(b1-4)GlcNAc(b1-2)Man = biological target: Gal(b1-4)GlcNAc(b1-2)Man
Procedure, shortened: as §1

[15] = biological target: Gal(b1-4)GlcNAc(b1-2)Man(a1-3)Man(b1-4)GlcNAc(b1-4)GlcNAc
Procedure, shortened: as §1

[16] = biological target: Gal(b1-4)GlcNAc(b1-2)Man(a1-3)[Gal(b1-4)GlcNAc(b1-2)Man(a1-6)]Man(b1-4)GlcNAc(b1-4)GlcNAc
Procedure, shortened: as §1

[17] = biological target: Gal(b1-4)GlcNAc(b1-2)Man(a1-3)[Gal(b1-4)GlcNAc(b1-2)Man(a1-6)]Man(b1-4)GlcNAc(b1-4)[Fuc(a1-6)]GlcNAc
Procedure, shortened: as §1

[18] = biological target: Gal(b1-4)GlcNAc(b1-2)Man(a1-3)[Gal(b1-4)GlcNAc(b1-2)Man(a1-6)][Gal(b1-4)GlcNAc(b1-4)]Man(b1-4)GlcNAc(b1-4)[Fuc(a1-6)]GlcNAc
Procedure, shortened: as §1

B1: Jacalin (Artocarpus integrifolia) (protein)
chain: MAYSSLLSLSVLALLFSISSADTRKWFLANGINQNPIGIIEAAVGVSEDLLNLNGMEAKNDEQSGISQTVIVGPWGAKVSTSSNGKAFDDGAFTGIREINLSYNKETAIGDFQVVYDLNGSPYVGQNHKSFITGFTPVKISLDFPSEYIMEVSGYTGNVSGYVVVRSLTFKTNKKTYGPYGVTSGTPFNLPIENGLIVGFKGSIGYWLDYFSMYLSL
- glycan array binding signal (z-score) [1]: -0.241
- glycan array binding signal (z-score) [2]: 0.006
- glycan array binding signal (z-score) [3]: -0.256
- glycan array binding signal (z-score) [4]: -0.357
- glycan array binding signal (z-score) [5]: -0.267
- glycan array binding signal (z-score) [6]: -0.255
- glycan array binding signal (z-score) [7]: -0.203
- glycan array binding signal (z-score) [8]: -0.268
- glycan array binding signal (z-score) [9]: -0.268
- glycan array binding signal (z-score) [10]: -0.343
- glycan array binding signal (z-score) [11]: -0.284
- glycan array binding signal (z-score) (Gal(b1-4)Gal): -0.257
- glycan array binding signal (z-score) [12]: -0.256
- glycan array binding signal (z-score) [13]: -0.271
- glycan array binding signal (z-score) (Gal(b1-4)Glc): -0.274
- glycan array binding signal (z-score) (Gal(b1-4)Glc6S): -0.26
- glycan array binding signal (z-score) (Gal(b1-4)GlcNAc): -0.26
- glycan array binding signal (z-score) [14]: -0.265
- glycan array binding signal (z-score) (Gal(b1-4)GlcNAc(b1-2)Man): -0.277
- glycan array binding signal (z-score) [15]: -0.243
- glycan array binding signal (z-score) [16]: -0.276
- glycan array binding signal (z-score) [17]: -0.012
- glycan array binding signal (z-score) [18]: -0.268
